Values marked as one replicate rest on one cluster of the flow cell; about a third of the high ones do not repeat.
Tested on: ATP
Assay: switch fluorescence ratio, 500 uM ATP over buffer (Cy3 cluster intensity, sum of 5 cycles each) (fold (ratio)); higher = stronger signal-on switching upon ATP binding; sequences stand for … in TCGTCGGCAGCGTCAGATGTGTATAAGAGACAGTTTTTTTTTTTTTTTTTTTTTTTTT…TC
Conditions: aptamer strand: ATP DNA aptamer (quencher-CACCTGGGGGAGTATTGCGGAGGAAGG + anchor), 100 nM annealed; ATP concentration: 500 uM; one replicate
How it was run: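 Clusters with intensities outside 100-1000 RFU were excluded. The remaining Cy3-labelled switching-strand clusters on a modified Illumina MiSeq flow-cell had been annealed to 100 nM quencher-labelled ATP aptamer and imaged in selection buffer, then after 15 min with 500 uM ATP at 22 °C, for five cycles separated by NaOH stripping and re-annealing. The fluorescence ratio, averaged per switch-domain sequence, is each cluster's summed target-cycle Cy3 intensity over its summed buffer-cycle Cy3 intensity.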
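Also: ATP exposure 15 min at 22 °C before imaging.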

Sequence	switch fluorescence ratio
AGGAAGGATA	0.966
TAAGCCCGGA	1.03
ATAAATGTG	1.02
CGCGATGTGT	1.06
GGCGTGGGTC	1.06
TTACAGGAAT	0.958
CGAGTGGACC	0.946
TGCTCGTTGG	1
GTGAGCCCCG	1.03
CAACAGTGCC	1.04
CCCTACTATT	1
AACGTGGTCG	1.02
AGCTTGGCTG	0.972
GTGAATTGTG	1
CCGGTACAGC	1.3
CGTTTGTTAG	1.04
ACCACCTGCA	1.19
CAATTTTGCG	0.955
GATTGCAGCT	1.03
TTCCTAAGTC	1.03
GTTTGCCTAC	1.08
GACAACCCCG	1.02
TGCGCTAAGT	1.03
GGGATGTCGT	1.05
ACCATGGGAC	1.09

Sequence	switch fluorescence ratio
ACACGGCATC	1.18
AATAACATGT	0.959
AGCGTAGATG	0.984
CAGTGTGGGC	0.938
GGTCCAACAG	1.01
GTCAAGGCTT	1.14
CGCCGATGCA	1.02
CTACCATCTC	1.07
TTGCGCACTC	1.01
ATCAATTTTT	0.982
TTGACGTTTT	1.03
GATTAATCAC	1.02
CGTGTATTGC	1.03
CAATTGACGA	1.02
TGAAGGCTCC	1.08
ATAGGTAGAG	0.936
TATTTAGTCC	1.02
GCGGGGCCGG	0.967
AGGCAATTGA	0.963
TGCCAAGTCA	0.976
ATAGATGATG	0.992
CAGGACTTGG	1
AGACGAGAAG	1.03
CGCCCTTGTA	0.942
ATTGAACGT	0.867

Sequence	switch fluorescence ratio
GACACGGGAA	1.06
GTTCTAATAT	0.973
GACGCGTCCC	1.06
CCTATATCCT	1.05
CGTTCCCTAG	1.04
CGGTATAACA	0.988
ACCGCACAAG	1.46
CTTCCACCGG	2.74
GAGCAGATG	1.19
CTTAAAATT	0.967
CGCCGGTCAA	1.12
CGTGCTGCAG	1.02
AAGCTCAGAA	0.953
TAGCTCCTGG	0.981
TTGCTCGGAG	0.997
CGTTGGGATA	0.95
TTGGGATTCC	1.03
TGTGGGTATG	0.973
GATGAGAGAT	0.97
TTCAACACTT	1
AACGGAACGC	1.1
AGTATAGTGT	0.982
CGAGTCCAAC	0.997
AGCGAGTGCT	0.985
GCCACACACT	1.4

Sequence	switch fluorescence ratio
CTGATGTTAG	1.01
AAAGGCGCTT	1.02
CACTCTAACC	1.1
GTACAAGTGC	0.986
CGGGCCTGGG	1.01
GTGATAGGCT	0.988
TTCCTATCCG	1.08
CCTCCATCCT	1.57
TTAGAACGGT	1
AATCTTTAGC	1
GCTTAAGGTT	0.964
AGTTAGGTAA	1.02
AACGTTCAGC	1.04
TTATGCACTT	1.05
CGGTTTCAT	0.959
CTAATCATTT	1.01
CGCGGGGGCT	0.989
GCGGCCACGA	1.04
CATATTACGC	0.998
TTTCATACAC	1.06
GTACCGATTC	1.11
GGAGCCTCAC	1.16
TCGCATCA	1.07
GACCGACGTT	1.31
GGGCCTCTGT	0.967

Sequence	switch fluorescence ratio
GCGGGGGACG	1.07
TCCACGTTGC	1.13
ATCGAACTCT	1.01
GATACGATTT	1.01
CATGTCACAA	1.03
GTTGAGTCTG	0.993
CGCGCCTATG	1.03
GGGTTGAGCC	0.999
CGTGTGTTAT	0.979
GCCCAGGGCT	0.997
GAAATATCGA	0.991
TCTCATAGGA	0.98
CAACTGCGTC	1.06
GATCTGCTGT	0.97
AGGAAAGGAC	1.06
CCGTGATTGG	1.19
TCGTTCGAAC	0.95
ATTCGTTATC	0.976
AGAACTGCGG	1.03
TCTTAGGCGA	1.03
CTTCGTTGT	1.06
TTACGTATCT	1.22
TCGTAATTTT	0.947
ATAGGCAGTC	0.957
AGTCTGTAGA	1.06

Sequence	switch fluorescence ratio
CATTCCGATG	1.64
TACGAATTCC	1.11
AGTTGACTTC	0.967
TATCGAGGCC	1.07
TGCCAGTGCA	1.02
TAGTGGGTCA	1.02
AACCATAATT	1.04
CATAACGGGA	1.03
AAATAACGGG	1.01
TATCAGCATT	1.06
TAATTCAGAA	1.01
GCGCAGCGGG	0.99
GAGGATGTTC	0.966
TCGCTAGTGG	0.985
AGCGCTACCG	1.01
AGCCAGGACT	1.03
ATACTTGTCA	0.961
CGGTGAGTTA	0.965
GGATTCGGCC	0.972
TTCCCCCTTG	1.27
ATGTTTAATG	0.96
ACCCGGAATG	1.84
GCGCTGACCG	1.03
CATGGACTGC	1.04
TCAGGCT	1.04

Sequence	switch fluorescence ratio
ATTAGTTGT	0.98
AAAGTGGTTT	1.03
TGGGCCGTTG	1.01
TACTAATGC	1.01
CACGTTCTAC	1.15
TTTCTATTTC	1.07
TTCATGGAAG	1.02
GACAGGGGTG	1.01
GAATACAAGG	1.03
TGAGGTTACA	1.04
GAGGCCTTTT	0.984
AGCTTTAAGT	0.984
TAGAACACAA	1.02
GCGGATACAG	1.05
AAAACATAGG	1.05
ACCTATACGT	1.06
GGGTATTTCA	0.968
TGCTGTTCGC	0.961
AGTCGTAATT	0.958
GGTGTGCAGG	1.03
AACATATACG	1.19
GAAGCAGGTA	1.1
AGGGTCTCAA	0.991
GCTTAAGCTG	0.995
ACTGTCACCA	1.42

Sequence	switch fluorescence ratio
GGGGCGTAAC	0.99
TATCTATTAG	1.02
AGACTGAAGG	0.993
GAGGTTTTCT	1
GGTCGTGGCG	1.07
GTGTCAGGCC	0.997
ACGGGCCAGT	0.992
TCGACCTTTG	1.06
TTTGGAGCC	1.07
GAGATACTAT	1
AGTTGCCCAT	0.996
TTTCGACGG	1.04
TAGATAAAGT	0.941
CAATTCACGT	1.06
ATGAAATCGG	0.972
ACGGAATGTC	1.21
CCATTTAAAG	1
GCGGCTCTGT	0.984
AAGTATTAGG	0.99
CCGTTCAGCG	1.07
CTACTTGTA	1.01
CGACGACATG	1.09
TTAAGCGTCG	1.07
AGATGGGTCA	1.06
GATAAAATCA	0.934
